# This is one part of the list.
# B1: Malectin (Xenopus laevis), Q6INX3 (protein)
# chain: SGLADKVIWAVNAGGESHVDVHGIHYRKDPLEGRVGRASDYGMKLPILRSNPEDQVLYQTERYNEDSFGYDIPIKEEGEYVLVLKFAEVYFAQSQQKVFDVRVNGHTVVKDLDIFDRVGHSTAHDEIIPISIKKGKLSVQGEVSTFTGKLSVEFVKGYYDNPKVCALFIMKGTADDVPMLQPHPGLE
# Assays:
# Assay in all cases: glycan array binding signal (z-score within array); higher = stronger binding
# Conditions in all cases: glycan notation: IUPAC condensed, linker removed
# Gal(b1-4)GlcNAc(b1-3)Fuc = biological target: Gal(b1-4)GlcNAc(b1-3)Fuc
# Outline: (§1)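 Negative Z-scores can be read as non-binding. The Z-score is calculated within each array and then averaged across arrays of one protein sequence at different concentrations or buffers and across linkers. Arrays, 3228 in all, were curated from the Consortium for Functional Glycomics database and kept only where the protein sequence was available.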
# [1] = biological target: Gal(b1-4)GlcNAc(b1-3)Gal(b1-4)Glc
# Outline: as §1
# [2] = biological target: Gal(b1-4)GlcNAc(b1-3)Gal(b1-4)GlcNAc(b1-3)Gal(b1-4)Glc
# Outline: as §1
# [3] = biological target: Gal(b1-4)GlcNAc(b1-3)[Fuc(a1-3)[Gal(b1-4)]GlcNAc(b1-6)]Gal(b1-4)Glc
# Outline: as §1
# [4] = biological target: Gal(b1-4)GlcNAc(b1-3)[Gal(b1-4)GlcNAc(b1-6)]Gal(b1-4)Glc
# Outline: as §1
# [5] = biological target: Gal(b1-4)GlcNAc(b1-3)[Gal(b1-4)GlcNAc(b1-6)]Gal(b1-4)GlcNAc(b1-3)Gal(b1-4)Glc
# Outline: as §1
# [6] = biological target: Gal(b1-4)GlcNAc(b1-3)[Gal(b1-4)GlcNAc(b1-6)]Gal(b1-4)GlcNAc(b1-3)[Gal(b1-4)GlcNAc(b1-6)]Gal(b1-4)GlcNAc(b1-3)Gal(b1-4)Glc
# Outline: as §1
# [7] = biological target: Gal(b1-4)GlcNAc(b1-3)[Gal(b1-4)GlcNAc(b1-6)]Gal(b1-4)GlcNAc(b1-3)[Gal(b1-4)GlcNAc(b1-6)]Gal(b1-4)GlcNAc(b1-3)[Gal(b1-4)GlcNAc(b1-6)]Gal(b1-4)GlcNAc(b1-3)Gal(b1-4)Glc
# Outline: as §1
# [8] = biological target: Gal(b1-4)GlcNAc(b1-3)[Gal(b1-4)GlcNAc(b1-6)]Gal(b1-4)GlcNAc(b1-3)[Gal(b1-4)GlcNAc(b1-6)]Gal(b1-4)GlcNAc(b1-3)[Gal(b1-4)GlcNAc(b1-6)]Gal(b1-4)GlcNAc(b1-3)[Gal(b1-4)GlcNAc(b1-6)]Gal(b1-4)GlcNAc(b1-3)Gal(b1-4)Glc
# Outline: as §1
# Gal(b1-6)GalNAc = biological target: Gal(b1-6)GalNAc
# Outline: as §1
# [9] = biological target: Gal3S(b1-3)GalNAc(b1-4)Gal3S(b1-4)Glc
# Outline: as §1
# [10] = biological target: Gal3S(b1-3)[Fuc(a1-4)]GlcNAc
# Outline: as §1
# [11] = biological target: Gal3S(b1-3)[Fuc(a1-4)]GlcNAc(b1-3)Gal(b1-4)Glc
# Outline: as §1
# Gal3S(b1-4)Glc = biological target: Gal3S(b1-4)Glc
# Outline: as §1
# Gal3S(b1-4)GlcNAc = biological target: Gal3S(b1-4)GlcNAc
# Outline: as §1
# [12] = biological target: Gal3S(b1-4)GlcNAc(b1-3)Gal
# Outline: as §1
# [13] = biological target: Gal6S(b1-3)[Fuc(a1-4)]GlcNAc(b1-3)Gal(b1-4)Glc
# Outline: as §1
# GalNAc(a1-3)Gal(b1-4)Glc = biological target: GalNAc(a1-3)Gal(b1-4)Glc
# Outline: as §1
# GalNAc(a1-3)GalNAc = biological target: GalNAc(a1-3)GalNAc
# Outline: as §1
# GalNAc(b1-4)Gal(b1-4)Glc = biological target: GalNAc(b1-4)Gal(b1-4)Glc
# Outline: as §1
# [14] = biological target: GalNAc(b1-4)Gal3S(b1-4)Glc
# Outline: as §1
# [15] = biological target: GalNAc3S(b1-4)Gal3S(b1-4)Glc
# Outline: as §1
# Glc(a1-2)Glc = biological target: Glc(a1-2)Glc
# Outline: as §1
# [16] = biological target: Glc(a1-2)Glc(a1-3)Glc(a1-3)Man(a1-2)Man(a1-2)Man(a1-3)[Man(a1-3)[Man(a1-6)]Man(a1-6)]Man(b1-4)GlcNAc
# Outline: as §1
# Glc(a1-3)Glc = biological target: Glc(a1-3)Glc
# Outline: as §1
# [17] = biological target: Glc(a1-3)Glc(a1-3)Man(a1-2)Man(a1-2)Man(a1-3)[Man(a1-3)[Man(a1-6)]Man(a1-6)]Man(b1-4)GlcNAc
# Outline: as §1
# [18] = biological target: Glc(a1-3)Man(a1-2)Man(a1-2)Man(a1-3)[Man(a1-2)Man(a1-3)[Man(a1-2)Man(a1-6)]Man(a1-6)]Man(b1-4)GlcNAc(b1-4)GlcNAc
# Outline: as §1
# Glc(a1-4)Glc = biological target: Glc(a1-4)Glc
# Outline: as §1
# Glc(a1-4)Glc(a1-4)Glc = biological target: Glc(a1-4)Glc(a1-4)Glc
# Outline: as §1
# [19] = biological target: Glc(a1-4)Glc(a1-4)Glc(a1-4)Glc
# Outline: as §1
# [20] = biological target: Glc(a1-4)Glc(a1-4)Glc(a1-4)Glc(a1-4)Glc
# Outline: as §1
# [21] = biological target: Glc(a1-4)Glc(a1-4)Glc(a1-4)Glc(a1-4)Glc(a1-4)Glc
# Outline: as §1
# [22] = biological target: Glc(a1-4)Glc(a1-4)Glc(a1-4)Glc(a1-4)Glc(a1-4)Glc(a1-4)Glc
# Outline: as §1
# Glc(a1-6)Glc = biological target: Glc(a1-6)Glc
# Outline: as §1
# [23] = biological target: Glc(a1-6)Glc(a1-4)Glc(a1-4)Glc
# Outline: as §1
# Glc(a1-6)Glc(a1-6)Glc = biological target: Glc(a1-6)Glc(a1-6)Glc
# Outline: as §1
# [24] = biological target: Glc(a1-6)Glc(a1-6)Glc(a1-6)Glc
# Outline: as §1
# [25] = biological target: Glc(a1-6)Glc(a1-6)Glc(a1-6)Glc(a1-6)Glc
# Outline: as §1
# [26] = biological target: Glc(a1-6)Glc(a1-6)Glc(a1-6)Glc(a1-6)Glc(a1-6)Glc
# Outline: as §1
# [27] = biological target: Glc(a1-6)Glc(a1-6)Glc(a1-6)Glc(a1-6)Glc(a1-6)Glc(a1-6)Glc
# Outline: as §1
# Glc(b1-3)Glc = biological target: Glc(b1-3)Glc
# Outline: as §1
# Glc(b1-3)Glc(b1-3)Glc = biological target: Glc(b1-3)Glc(b1-3)Glc
# Outline: as §1
# [28] = biological target: Glc(b1-3)Glc(b1-3)Glc(b1-3)Glc
# Outline: as §1
# [29] = biological target: Glc(b1-3)Glc(b1-3)Glc(b1-3)Glc(b1-3)Glc
# Outline: as §1
# [30] = biological target: Glc(b1-3)Glc(b1-3)Glc(b1-3)Glc(b1-3)Glc(b1-3)Glc
# Outline: as §1
binder,measurement,setting,value
B1,glycan array binding signal (z-score),Gal(b1-4)GlcNAc(b1-3)Fuc,-0.072
same,glycan array binding signal (z-score),[1],-0.073
same,glycan array binding signal (z-score),[2],-0.076
same,glycan array binding signal (z-score),[3],-0.073
same,glycan array binding signal (z-score),[4],-0.075
same,glycan array binding signal (z-score),[5],-0.076
same,glycan array binding signal (z-score),[6],-0.067
same,glycan array binding signal (z-score),[7],-0.057
same,glycan array binding signal (z-score),[8],-0.066
same,glycan array binding signal (z-score),Gal(b1-6)GalNAc,-0.072
same,glycan array binding signal (z-score),[9],-0.076
same,glycan array binding signal (z-score),[10],-0.073
same,glycan array binding signal (z-score),[11],-0.076
same,glycan array binding signal (z-score),Gal3S(b1-4)Glc,-0.075
same,glycan array binding signal (z-score),Gal3S(b1-4)GlcNAc,-0.074
same,glycan array binding signal (z-score),[12],-0.076
same,glycan array binding signal (z-score),[13],-0.075
same,glycan array binding signal (z-score),GalNAc(a1-3)Gal(b1-4)Glc,-0.072
same,glycan array binding signal (z-score),GalNAc(a1-3)GalNAc,-0.076
same,glycan array binding signal (z-score),GalNAc(b1-4)Gal(b1-4)Glc,-0.072
same,glycan array binding signal (z-score),[14],-0.072
same,glycan array binding signal (z-score),[15],-0.076
same,glycan array binding signal (z-score),Glc(a1-2)Glc,-0.225
same,glycan array binding signal (z-score),[16],0.052
same,glycan array binding signal (z-score),Glc(a1-3)Glc,0.041
same,glycan array binding signal (z-score),[17],8.46
same,glycan array binding signal (z-score),[18],-0.171
same,glycan array binding signal (z-score),Glc(a1-4)Glc,-0.012
same,glycan array binding signal (z-score),Glc(a1-4)Glc(a1-4)Glc,-0.216
same,glycan array binding signal (z-score),[19],-0.148
same,glycan array binding signal (z-score),[20],-0.19
same,glycan array binding signal (z-score),[21],-0.148
same,glycan array binding signal (z-score),[22],0.01
same,glycan array binding signal (z-score),Glc(a1-6)Glc,-0.214
same,glycan array binding signal (z-score),[23],-0.06
same,glycan array binding signal (z-score),Glc(a1-6)Glc(a1-6)Glc,-0.212
same,glycan array binding signal (z-score),[24],0.133
same,glycan array binding signal (z-score),[25],0.876
same,glycan array binding signal (z-score),[26],1.32
same,glycan array binding signal (z-score),[27],-0.065
same,glycan array binding signal (z-score),Glc(b1-3)Glc,-0.223
same,glycan array binding signal (z-score),Glc(b1-3)Glc(b1-3)Glc,-0.223
same,glycan array binding signal (z-score),[28],-0.218
same,glycan array binding signal (z-score),[29],-0.196
same,glycan array binding signal (z-score),[30],-0.092

# Source: the supplement of paper PMC8728848
